Test results published in PubChem BioAssay AID651820 (National Center for Advancing Translational Sciences (NCATS), 2012).
Out of some 340,000 compounds screened, about 12,000 (3.5%) were called active. This list was built around the results that the source calls inconclusive (neither active nor inactive); the mix of calls is not that of the screen. Calls follow the shape of the dose curve; as a rule, active = well fitted inhibition curve with a large enough effect; inconclusive = small, poorly fitted or top-dose-only effect, or another doubt; inactive = no such curve, though single readings can be large or run the other way. Potencies of inconclusive entries are left out as doubtful fits.

Experiment: qHTS Assay for Inhibitors of Hepatitis C Virus (HCV)
Conditions: Huh7.5.1 HCVcc-Cre (HCVcc is cell-culture hepatitis C virus) infection, luciferase reporter, 44 h; series mostly up to 41.8 µM
In short: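 A cell-based infection assay in which seeded cells (1,000 per well) receive test compound after 4 h, are inoculated with HCVcc-Cre at approximately 0.5 moi, and are incubated 44 h before luminescence detection.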
Potency is read from the fitted curve at half-maximal effect; tags tell the direction and shape of the fitted curve.

Structure (SMILES)	Potency
O=C(NCCCn1ccnc1)c1ccc(-c2cccc(C(F)(F)F)c2)o1	inconclusive [inhibitor, partial curve]
COc1ccc(-c2[nH]ncc2CN2CCN(Cc3cccs3)CC2)c(F)c1	inconclusive [inhibitor, single point]
O=S(=O)(NCCc1csc(-c2cccnc2)n1)c1ccc2c(c1)OCCO2	inactive
Cc1nc(NC(=O)Nc2ccc(Cl)cc2)sc1C	inactive
COc1ccc(Cl)cc1C(=O)O/N=C(\N)c1ccc(Cl)cc1	inconclusive [inhibitor, single point]
CC(C)(C)c1ccc(OCCCn2ccnc2)cc1	inconclusive [inhibitor, single point]
Fc1ccccc1-c1nc(N2CCCCC2)c2ccccc2n1	inactive
CC(C)Cc1nnc(NC(=O)c2ccncc2)s1	inactive
CCCN(CCC)C(=O)c1cc([N+](=O)[O-])cc2c1-c1ccc([N+](=O)[O-])cc1C2=C(C#N)C#N	inconclusive [inhibitor, partial curve]
O=C(NCC(c1ccc(F)cc1)N1CCOCC1)c1nn(-c2ccccc2)c(=O)c2ccccc12 (centres undefined)	inconclusive [inhibitor, partial curve]
Cc1cc(SCC(=O)c2ccccc2)n2nc(C)nc2n1	inconclusive [inhibitor, partial curve]
CCNc1nc(NCC)nc(C(=O)Nc2ccccc2)n1	inconclusive [inhibitor, single point]
Cc1ccc(CNS(=O)(=O)c2ccc3c(c2)n(C)c(=O)n3C)cc1	inconclusive [inhibitor, single point]
CN(C(=O)COC(=O)/C=C/c1cn(-c2ccccc2)nc1-c1ccc2c(c1)OCCO2)C1CCS(=O)(=O)C1 (centres undefined)	inconclusive [inhibitor, partial curve]
CC(C)(C)c1ccc(S(=O)(=O)N2C=CC(C(F)(F)F)=NCC2)cc1	inactive
Cc1ccc(Cl)cc1NC(=O)Nc1cccs1	inactive
Cn1ncc2c(N3CCN(c4ccc(Cl)c(Cl)c4)CC3)ncnc21	inconclusive [inhibitor, partial curve]
COc1cccc(C2=NOC(C(=O)Nc3ccccc3SC)C2)c1 (centres undefined)	inconclusive [inhibitor, single point]
Cc1ccc(C(C)C)c(OCCCN2C(=O)NC(C)(C)C2=O)c1	inactive
COc1ccc(NS(=O)(=O)c2ccc(NC(=O)Cc3cccs3)cc2)cc1	inactive
O=C(COc1ccc2cc(Br)ccc2c1Br)N1CCOCC1	inactive
CCO[C@H]1OC(C(=O)N2CCN(C)CC2)=C[C@@H](C(C)(C)C)[C@@H]1CCCO	inconclusive [inhibitor, single point]
CNC(=O)c1cccnc1Nc1cccc(C(F)(F)F)c1	active: 10 µM

Structure (SMILES)	Potency
O=C(Nc1ccc(N2CCN(C(=O)c3ccco3)CC2)c(Cl)c1)c1cc2ccccc2o1	active: 3.55 µM
CC(=O)c1c(C)[nH]c(C(=O)OCC(=O)Nc2ccc3c(c2)OCCO3)c1C	inconclusive [inhibitor, partial curve]
Cc1ccc(C(=O)Nc2cccc(S(=O)(=O)N3CCCCC3)c2)cc1S(=O)(=O)N1CCOCC1	active: 8.91 µM
COCCN=c1scc(-c2ccc3c(c2)NC(=O)CO3)n1/N=C(\C)c1ccc(O)cc1	inconclusive [inhibitor, partial curve, poor fit]
Cc1cccc(N(C(=O)c2sc(C)nc2C)C(C(=O)NCc2ccco2)c2ccccc2)c1 (centres undefined)	inactive
COc1ccc(CCN(C)S(=O)(=O)c2ccc(Cl)nc2)cc1OC	inconclusive [inhibitor, single point]
Cc1c(N=Cc2c(O)n(Cc3ccco3)c(=O)c3ccccc23)c(=O)n(-c2ccccc2)n1C	inconclusive [inhibitor, single point]
Cc1cc2c(C(F)(F)F)cc(=O)oc2c2c1NCCC2	inconclusive [inhibitor, partial curve]
CCCSc1nc2c(cnn2-c2ccc(C)c(C)c2)c(=O)[nH]1	inconclusive [inhibitor, single point]
COc1ccc(-c2noc(CCCC(=O)NC3CCCC3)n2)cc1OC	inconclusive [inhibitor, partial curve]
O=C(N/N=C/c1cc2c(cc1Br)OCO2)c1cc2ccccc2o1	inconclusive [inhibitor, partial curve]
COc1ccc(Nc2cc(C(=O)NC3CCCC3)c3ccccc3n2)c(OC)c1	inconclusive [inhibitor, partial curve]
Cc1c(C(=O)NCC2COc3ccccc3O2)oc2ccc(S(=O)(=O)N3CC(C)CC(C)C3)cc12 (centres undefined)	inconclusive [inhibitor, partial curve]
CCC(=O)Nc1nc2nc(-c3ccccc3)cc(=O)n2[nH]1	inconclusive [inhibitor, single point]
CCOC(=O)c1cc(C)sc1NC(=O)CSC1=NCCS1	inconclusive [inhibitor, full curve, poor fit]
Oc1ccc(Nc2ccnc3cc(Cl)ccc23)cc1	inactive
CC(CNC(=O)c1ccc2c(c1)OCO2)c1ccc([N+](=O)[O-])cc1 (centres undefined)	inactive
Nc1nc(NCCCN2CCOCC2)nc(Nc2cccc(Cl)c2)c1[N+](=O)[O-]	inconclusive [inhibitor, partial curve]
COc1ccc(-c2[nH]c(-c3cc(OC)c4c(c3)OCO4)nc2-c2ccccc2)cc1	inconclusive [inhibitor, partial curve]
Cc1ccc(COc2ccc(CNCCCN3CCCCCC3=O)cc2)cc1	inconclusive [inhibitor, single point]
COc1cc2c(C(=O)NCc3ccc4c(c3)OCO4)cn(CC(C)C)c(=O)c2cc1OC	inconclusive [inhibitor, single point]
COc1cccc(/C=C/C(=O)Nc2ccc(C(=O)Nc3cccc(S(N)(=O)=O)c3)cc2)c1OC	inconclusive [inhibitor, partial curve]
COc1cc2c(cc1NC(=O)/C=C/c1ccccc1)oc1ccccc12	active: 7.08 µM

Structure (SMILES)	Potency
COc1cc(S(=O)(=O)NCc2ccccc2)ccc1-n1cnnn1	inconclusive [inhibitor, single point]
C#CCn1c(O)c(N=NC(=O)CNC(=O)c2cccnc2)c2ccccc21	inactive
O=c1cc(CCl)[nH]c2nc3ccccc3n12	inactive
CCCCOc1ccc(SCCCN2CCOCC2)cc1	inconclusive [inhibitor, single point]
O=C(CN1C(=O)NC2(CCCCCCC2)C1=O)Nc1ccc(OC(F)F)cc1	inconclusive [inhibitor, partial curve]
C(=Cc1cnnc2ccccc12)c1ccccc1	inconclusive [inhibitor, partial curve]
COc1ccc(NC(=O)c2csc(Cc3ccc(Cl)cc3)n2)cc1	inactive
CCOc1ccccc1NC(=O)CCS(=O)(=O)c1cccc2nonc12	inactive
CCC(=O)Nc1nonc1-c1nc2ccccc2n1Cc1cccc2ccccc12	inconclusive [inhibitor, partial curve]
COc1ccc(-c2noc(CSc3nc(N)c(-c4ccccc4)c(=O)[nH]3)n2)cc1OC	inconclusive [inhibitor, partial curve]
CCN1C[C@@H]2[C@@H]3C(=O)N(Cc4ccccc4)C(=O)[C@@H]3[C@](C)(C(=O)OC)N2C1=NC1CCCCC1	inconclusive [inhibitor, single point]
Cc1ccccc1C(N)=O	inactive
Cc1ccc(-c2nnc(SC(C)C(=O)NCC3CCCO3)nc2-c2ccc(C)cc2)cc1 (centres undefined)	inconclusive [inhibitor, single point]
CN(C(=O)c1ccc(COc2ccccc2Cl)o1)c1ccccc1	inconclusive [inhibitor, single point]
Cn1nc(C(=O)Nc2cccc(S(=O)(=O)N3CCCCC3)c2)c2ccccc2c1=O	inconclusive [inhibitor, partial curve]
CC(=O)c1nn(-c2cccc(Br)c2)cc1C(=O)c1ccc(C)cc1	inconclusive [inhibitor, single point]
Cc1ccc(C(C)C)c2c1C(c1ccc3c(c1)OCO3)CC(=O)O2 (centres undefined)	active: 12.6 µM
CSc1ncccc1C(=O)Nc1ccc(F)c(F)c1F	inconclusive [inhibitor, single point]
O=C1c2cccnc2C(Nc2ccc(Br)cc2)N1Cc1cccs1 (centres undefined)	inactive
COc1cc(NC2CCCCC2O)c2nc(-c3ccc(Cl)cc3)ccc2c1 (centres undefined)	inconclusive [inhibitor, partial curve]
Cc1cccc(N(Cc2ccccc2)C(=O)c2cc(S(=O)(=O)N3CCOCC3)ccc2Cl)c1	inconclusive [inhibitor, partial curve]
COC(=O)C1=C(c2cccc3c2S(=O)(=O)c2ccccc2-3)C[C@@H]2CC[C@H]1N2C(=O)N1CCc2cc(OC)c(OC)cc2C1	active: 10 µM
CCCOC(=O)c1ccc(Oc2c(-c3ccc(O)cc3O)n[nH]c2C)cc1	inconclusive [inhibitor, single point]
